The list shows a part of the results.

Experimental findings from the supplement of paper PMC11417369 are described below.

The assay has as its system PF3D7_0420300 AP2 domain 1 (GST-tagged). Description: gcPBM binding intensity (ln(normalized median fluorescence intensity)); higher = stronger DNA binding. Put shortly:
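Alexa488 anti-GST antibody, scanned at 488 nm, detected GST-tagged P. falciparum DNA-binding domains that had been expressed in E. coli and incubated for 1 h on an Agilent 4 × 180k array. The array carried primer-extended double-stranded 36-bp intergenic genomic probes and negative controls. Binding intensity is the highest Masliner-normalised natural-log median intensity across replicate spots of either orientation of each probe.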
As for “TTTTTATTAGGACATGCATACAAAATTAAAAAAAAT [TGCATGCA_site258]”, the “gcPBM binding intensity (ln)” value came to 9.13. Regarding “GTATATAATTTATGTGCACACACTCCTATTTTTAGC [CACACA_site49]”, the “gcPBM binding intensity (ln)” value came to 9.6. With “AATTATATTAATATATAATAAAATAGGATGTTATTT [XGTACX_negctrl_site309]”, the “gcPBM binding intensity (ln)” value was 9.14. Take “TTATTAAAATATTAAAGTACAAAAAAAATAAATAAA [XGTACX_site6507]”: the “gcPBM binding intensity (ln)” value was found to be 9.24. Next, “TTATGTATATTATAAATTAATACATTTAAATTAATA [CACACA_negctrl_site34]”: 8.82; “CTTATTTTATGTTATACACACAAAGAAAAAAAATAA [CACACA_site2165]”: 9.32. As to “TATTAATTTATTTGTTGTACGTAAATATGCTTGTTT [XGTACX_site6591]”, the “gcPBM binding intensity (ln)” value was found to be 9.47. Next, “AAAAAAAAAAAAAATTGTACCCAAATATTTTTGTAG [XGTACX_site8303]”: 8.94; “CGTTTGGTACACGTAGTGTTTTCGTTTGAATGTACC [GTGCAC_negctrl_site201]”: 9.39; “TTTAATTTTCCCTTCACACATAATATATATCTGTAT [CACACA_site5370]”: 9.4.

With “TTTAATCAATGATTTAATGAAAAAAGCAAAAAAAAA [GTGCAC_negctrl_site213]”, the “gcPBM binding intensity (ln)” value is 9.05. Turning to “GACATATATAGCAATCGTACATATATTATAAAAGGT [XGTACX_site6891]”, the “gcPBM binding intensity (ln)” value was 9.5. For “AAAAGGAACAGACACACACACATATATAAATATGTA [CACACA_site7656]”, the “gcPBM binding intensity (ln)” value was 9.97. For the sequence “TTTTTTTATATTATACGCACTAATATATATATATAT [XGTACX_negctrl_site40]”, the “gcPBM binding intensity (ln)” value is 9.31. As to “AAATAGACATAAAAAGGTACACAAATTGTGTATTAA [XGTACX_site527]”, the “gcPBM binding intensity (ln)” value amounted to 9.46. For “TAACACTTTTTTTTTCGTACATATATTATATATATA [XGTACX_site5470]” the value was 9.4. On to “TAATAAGAAATAACAGGTACACATATATAAATATTA [XGTACX_site2976]”, for which the “gcPBM binding intensity (ln)” value was 9.57. Next, “ATATGTAGATGATATTATTACTTTTCAAAAATTCAA [CACACA_negctrl_site933]”: 8.97.

For the sequence “AAGTATAAAAAAAGGCGTACAAAAAAAAAAAAAAAA [XGTACX_site7309]”, the “gcPBM binding intensity (ln)” value came out at 8.92. Consider “TTTTTCATTAATACAAGTACAAAATGATGTTGACAT [XGTACX_site1475]”, for which the “gcPBM binding intensity (ln)” value was determined as 9.06. For “TTTTTGTAAAAACACACACACAAACAGAAAAAATAA [CACACA_site2076]” the value was 9.93.

In the case of “TGTGCCCAAAATTATGCACACACCTAAAATTAATTT [CACACA_site2914]”, the “gcPBM binding intensity (ln)” value is 9.42.

“ATGGTAGTTCTCCATGCATGCCTTTTTATTATCATA [TGCATGCA_site681]”: the “gcPBM binding intensity (ln)” value is 9.56. For the sequence “TTTTATCTTTTTTTATTTTAATGTATTATTTTTATG [XGTACX_negctrl_site24]”, the “gcPBM binding intensity (ln)” value worked out at 9.32.

“ACTATTTAGTCTGGTGGTACTTTATATATAATTTCT [XGTACX_site5618]”: the “gcPBM binding intensity (ln)” value is 9.7.

Turning to “ATATGTGTATGTGCGTGTACATATCTATACAGTTGT [XGTACX_site6540]”, the “gcPBM binding intensity (ln)” value was 9.59. Take “ATTATCATAATGTTCACACATATGGTATATATAGAT [CACACA_site6113]”: the “gcPBM binding intensity (ln)” value is 9.28.

On to “TGAGCATAAAAAGGGTGTACTTAAATATATTATATA [XGTACX_site7556]”, for which the “gcPBM binding intensity (ln)” value is 9.15.

Consider “GAATATAATCTGTATTGTACGAAAGTTGAACACTTG [XGTACX_site8895]”, for which the “gcPBM binding intensity (ln)” value was 9.16. Regarding “TTGTATTATTATGTTGCACACATTTTATATAAAATA [CACACA_site3641]”, the “gcPBM binding intensity (ln)” value is 9.56. Next, “TTTAGATAATTCATTACACACATGTATTTATATATA [CACACA_site5847]”: 9.52; “TATATATATATATATATATATACAAATATATATTAT [CACACA_negctrl_site1729]”: 8.98. With “ATAAAAGATATTTTTACACACTTTTGATGAGATCGT [CACACA_site3053]”, the “gcPBM binding intensity (ln)” value came out at 9.24.

As to “ATACCAACATATTATACACACCTTTATATTTTTTTT [CACACA_site5217]”, the “gcPBM binding intensity (ln)” value was 9.78. Consider “GGTTGTATAAGTTTTTGTACATATATATATATATAT [XGTACX_site7487]”, for which the “gcPBM binding intensity (ln)” value is 9.51. With “TTCAAGGTTTTAGATTGTACAATTATTATATATATA [XGTACX_site8982]”, the “gcPBM binding intensity (ln)” value was found to be 9.28.

“TATAAATAAAAACACACACACACATATATATATATA [CACACA_site2268]”: the “gcPBM binding intensity (ln)” value is 9.94. On to “TATAAATATAAATATACACACATATTTATATTTATA [CACACA_site7053]”, for which the “gcPBM binding intensity (ln)” value was 9.29.

Consider “CTCTATAAATGCTGCACACACATTTAATTATTTAAG [CACACA_site2582]”, for which the “gcPBM binding intensity (ln)” value came out at 9.51. Next, “TTTTACAATGAAAGGTGTACAAGTAACAGTAGAACA [XGTACX_site1528]”: 9.39; “AAATGAAATACATCCTGTACATAGTAATGCTAACAA [XGTACX_site6600]”: 9.23; “TATTTTTATATTTTTGCACACATTCTTTACTCTTCA [CACACA_site2211]”: 9.76. As to “AAAAATTTTATATTCACACACATATATATATATATA [CACACA_site624]”, the “gcPBM binding intensity (ln)” value was 9.49. On to “GATATATATTAATATACACACACACCGATATATATA [CACACA_site8462]”, for which the “gcPBM binding intensity (ln)” value amounted to 10. Take “AACAAATACAGACACACACACACACTAATAAAAAAA [CACACA_site8067]”: the “gcPBM binding intensity (ln)” value came out at 10.3.

Regarding “TTTATATTTTATAAATTATTCATAAATATATTTGTA [TGCATGCA_negctrl_site175]”, the “gcPBM binding intensity (ln)” value came to 8.83.

On to “AATAAATAGATAAGCACACAAGCATATAGACATATA [CACACA_site222]”, for which the “gcPBM binding intensity (ln)” value turned out to be 9.65. For “AAATTCCACCAACACACACACATATAAATAAATAAA [CACACA_site1233]” the value was 9.96; for “TTTTGAAACATATGATGTACACGAACATTTAAAAAA [XGTACX_site474]”, 9.06; for “ATAAATAAAGGACACACACACACACTAGAAAAAAAA [CACACA_site5450]”, 10. For “AAAATAAAATTAGTTGCATGCAACTTAAACAGAAAT [TGCATGCA_site860]” the value was 9.51; for “TTGTGCTTGATATCACGGACAAGCTCATATTATATA [XGTACX_site4553]”, 9.02. As for “TATATTATTAAGATATGTACATAATTATAAATTTAA [XGTACX_site6848]”, the “gcPBM binding intensity (ln)” value came out at 9.09. Take “ATGAAAAAATTTATATGTACTTAAAATATAATCATA [XGTACX_site1228]”: the “gcPBM binding intensity (ln)” value worked out at 8.98. In the case of “GCGTTATTAAATAATTCACACACATATATATATATA [CACACA_site8711]”, the “gcPBM binding intensity (ln)” value stood at 9.72.

As to “GAACGCCATTCACATAAAGGGATACATAAATAAATA [XGTACX_negctrl_site330]”, the “gcPBM binding intensity (ln)” value stood at 8.98.

In the case of “AAGAAAAACTTTACGTGTACCAAACGTCATGCCAAC [XGTACX_site2575]”, the “gcPBM binding intensity (ln)” value is 9.35.

Turning to “TTCTTGTATTTTCATAGTACATATAATGTCGTATTA [XGTACX_site600]”, the “gcPBM binding intensity (ln)” value came to 9.45. For “AATCACAAATAAAATAATATGACACAATATAAAATA [CACACA_negctrl_site537]” the value was 9.5; for “TACTTACACTGTTTTTGTACTTATTTCCCTTTTATT [XGTACX_site2158]”, 9.84; for “TAATTTCTTATGTATTGTACAAATAATGTATGATAT [XGTACX_site270]”, 9.2.

With “AAATATTTATAGGTTTGTACTTATAAATAAAAAAAA [XGTACX_site7360]”, the “gcPBM binding intensity (ln)” value amounted to 9.1. Regarding “TTTATAAAAATGAACACACACATATATATATATATA [CACACA_site3493]”, the “gcPBM binding intensity (ln)” value was 9.41. With “AATATGAAAAGATGAACAACAAAATGGAGAACAATA [GTGCAC_negctrl_site612]”, the “gcPBM binding intensity (ln)” value stood at 9.74.

Consider “ATACAAAATTTTTAAGAACACACAAAAATGTACTAT [CACACA_site8817]”, for which the “gcPBM binding intensity (ln)” value was 9.35. “TGAGGTAACTAAATATGTACGTAACGAAGATACATA [XGTACX_site8231]”: the “gcPBM binding intensity (ln)” value is 9.4.

As for “TTTATTATACAAAATTGTACTTTATAATTTTATGTA [XGTACX_site5846]”, the “gcPBM binding intensity (ln)” value stood at 9.08.

For “AAATATTACGGAATAAAGAGCTTTTAAATAATTTTA [CACACA_negctrl_site1700]”, the “gcPBM binding intensity (ln)” value came out at 9.03. Turning to “AGAAACCTTGTTAGTTAGCATATATATATATATATA [CACACA_negctrl_site372]”, the “gcPBM binding intensity (ln)” value was 9.11. “AAATATAAACGGCACACACACAAAAAAAGAAAAAAA [CACACA_site649]”: the “gcPBM binding intensity (ln)” value is 10.2. Next, “TATTTTATACATATTTTACACACTAATATATACATA [CACACA_site7998]”: 9.42; “AAATGTTATAACTCTTGAAAAAACAAAATATCATCA [CACACA_negctrl_site1156]”: 9.12. Regarding “ACTTTACAATATATATGTACATATTAATAAACATAT [XGTACX_site3689]”, the “gcPBM binding intensity (ln)” value was 9.28. Take “GAGTTTTTTTAATGATGTACATTTTAAAAATAAACG [XGTACX_site1036]”: the “gcPBM binding intensity (ln)” value amounted to 8.86. For the sequence “AAAATAATATATGTATGTACATATACACATATAGAA [XGTACX_site2218]”, the “gcPBM binding intensity (ln)” value worked out at 9.29. For TCATATATCATAACAGTGCAAAAAAAAAAAAATTAT the value was 9.26; for “AAAAAAAAAAAAGAAACACACATATATATATATATA [CACACA_site140]”, 9.23. Consider “GTTTGATTAAACTTGACACACATATATATAAATATA [CACACA_site1784]”, for which the “gcPBM binding intensity (ln)” value came to 9.29. For “AGAAAATATACAAAACGTACTTATATATTATATCTA [XGTACX_site3104]” the value was 9.12; for “GTTAGAGGGAAAAAGAGTACATATATGTGGATAATT [XGTACX_site2064]”, 9.26; for “GTTGCGTATATATACACACATACATATATATATATA [CACACA_site1607]”, 9.45. Take “TTATATAATAAAAATTGTACATATTATATATATATT [XGTACX_site3427]”: the “gcPBM binding intensity (ln)” value is 9.09. Regarding “TAATATTCAATTATACGTACACATATATATATATAT [XGTACX_site4245]”, the “gcPBM binding intensity (ln)” value turned out to be 9.26.

On to “ATTCATTCATATGTTACACACACACGCCCACATAAA [CACACA_site7513]”, for which the “gcPBM binding intensity (ln)” value stood at 10.3. As to “TTATATATATATATATATATTTACATAATAATATGT [GTGCAC_negctrl_site388]”, the “gcPBM binding intensity (ln)” value turned out to be 9. For “TAAAAAAAGGTTATTGGTACACACATATGTATATAT [XGTACX_site1029]”, the “gcPBM binding intensity (ln)” value came to 9.55.

Take “TAAACTTTCCAGTGTTGTACATAATAATTATTATAT [XGTACX_site8896]”: the “gcPBM binding intensity (ln)” value was 9.23.

Take “AAAGATATGAAATATACACACTTCTTTGGTATTATT [CACACA_site6352]”: the “gcPBM binding intensity (ln)” value stood at 9.42.
